Positions count from the first letter of the chain named. Like-named read-outs stand apart in the source and are kept apart here. No constants are given. Whether binding was seen depends on the method and setting. Some entries that bind do so weakly or less than the wild type.
T1: C38S-substituted MARC-3N (C. elegans) (UniProt Q93227)
T1 sequence: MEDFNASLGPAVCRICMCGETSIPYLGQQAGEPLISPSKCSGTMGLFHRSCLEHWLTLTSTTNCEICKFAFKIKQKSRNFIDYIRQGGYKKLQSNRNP

By UniProt entry, the sequences of proteins in these tests, tags left out.
UniProt P35129: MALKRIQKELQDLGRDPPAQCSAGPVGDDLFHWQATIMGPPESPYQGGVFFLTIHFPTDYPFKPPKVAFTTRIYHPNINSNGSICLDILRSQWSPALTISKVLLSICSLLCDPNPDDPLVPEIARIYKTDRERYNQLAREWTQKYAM
UniProt O45495: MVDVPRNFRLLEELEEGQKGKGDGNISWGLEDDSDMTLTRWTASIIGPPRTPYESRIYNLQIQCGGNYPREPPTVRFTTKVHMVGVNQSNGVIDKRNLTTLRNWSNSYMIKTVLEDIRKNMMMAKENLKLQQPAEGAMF

T2: MARC-3 N-terminal cytoplasmic region (MARC-3N, 1-98 aa) (C. elegans) (UniProt Q93227)
T2 sequence: T1 sequence with S38C

T3: MARC-3 C-terminal cytoplasmic region (MARC-3C, 179-431 aa) (C. elegans) (UniProt Q93227)
T3 sequence: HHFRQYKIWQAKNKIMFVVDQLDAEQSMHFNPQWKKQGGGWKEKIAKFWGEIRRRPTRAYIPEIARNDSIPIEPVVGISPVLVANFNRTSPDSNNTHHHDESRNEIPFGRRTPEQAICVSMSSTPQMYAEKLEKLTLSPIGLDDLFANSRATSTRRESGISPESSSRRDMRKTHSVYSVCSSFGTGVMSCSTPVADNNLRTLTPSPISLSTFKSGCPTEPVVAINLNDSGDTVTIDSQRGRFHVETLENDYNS

B1: EGG-3 (full length, 1-555 aa) (protein, UniProt Q20402 1-555)
chain: MRTSDSHLPLSNLARSDSIEFKDAVINEKWVHSANRRKGHLTPKAPEKKSGWFGGQKSEEELLMERVEQHELEELQTFIAQKLFRVDGIICDEETRILLVEKLMNAKEYPTINHDELAHRYGSSMAGWLRDRLVPSMSDCSSVLQRAAAEFYQNKMSDPLCNWGQLNPEHVSMVAARIAKFSEEMSSKVKWSLLVEPGKFSCHLTEFVQEFNRLDRMFVSNELSDEESLQTAFNANYLTKARSKMVPCAEFSRVKLNDGLGRLDDRNELRNGMFSDEHEFLQEEGYTAKSTYGTTDFIHANYVKGGPLLNTFICAQAPLKNTQEDFWRMVFQEKCQFIVMLNSAVDSSTLGPLDSANRNHCPYYWPRAENESLRFGSFHITCMKVDSKADPLFTITKLKVQKVGGNLLDAEFDEELFLEHWQWDWQYLGDVHWPFRVLRKARQLSTPTIVQCIDGCSKSGTLVSIETALMHFIRGSPITKSLILQSCVFVRLQRRLSVSSVLLYLFIYRVILRWIEPYVNKWYHRAALGLRFKSIGFIQKYNAMIQEFSRITPAY
B2: UBC-13 (full length, 1-151 aa) (enzyme, UniProt Q95XX0 1-151)
chain: MAGQLPRRIIKETQRLLADPVPGISANPDESNARYFHVMIAGPDDSPFAGGVFKLELFLPEEYPMAAPKVRFMTKIYHPNIDKLGRICLDILKDKWSPALQIRTVLLSIQALLSAPNPEDPLATDVAEQWKTNEAEAIKTAKQWTMNYAQA
B3: CHS-1 (the largest central cytoplasmic region, 418-836 aa) (domain or fragment, UniProt G5ECD6 418-836)
chain: RLVRQRYFDTNEEIISSMPPVCNGLCIEQSLVVFQHSLNRQEKTMLTEEEDISDENDELRIRNDEVDRVSTVYGCATMWHETETEMRQVLRSILKLDVDHATRMNNKKANELRYRLEGHIFFDDAWEDVEEDGIEKRQPNEYFNMFFDLLNEMTGERLNEEGKMETRILVNTPYGGRLVVKLPSGTLLFVHLKDKKMIRHKKRWSQVMYMYYLLGHRIMDCPLSIEDRQQMADNTFILAIDGDSKFEPDALLRLLHLMNAKSDIGCACGRIHPIGNGIMVWYQKFEYAIAHWFQKAAEHVFGCVLCAPGCFSLFRASALMDDNIMHKYTKTASEPRHYVQYDQGEDRWLSTLLLKQGYRIEYAAASDAETYAPEGFEEFFNQRRRWTPSSIANTVDLLMDYKRASENNDAISYAYIAYQ
B4: EGG-4 (full length, 1-753 aa) (protein, UniProt O01767 1-753)
chain: MALNSEVMFREQINAMRSQAGRKRATSLQSFCSGNTDDSSADSTDNMDMMVDYPQQKGVSCMRARFNSESTLSKSFRKKVKKLAQKDRRSKERLNGNSEEDAIEVPRGAPSTYAAPSKLRKSKALDCLVSEKPKDEGRREDSGHGADIEMAKGHFNNVRMKVFAARTAMQVEPALVMKTRKALEMKNAVLENHQSPGAFSLHAAYKIAASAESRVGSITPCNKKVTKEAMANLIRSSYDDTEITQELLFSSKFDTKWKGRYTDIYMRRDENGKKPKRPVNGQGWVMPLKSICEKFGINSTFFTNHRIDLKSARDQVLLMRLLSHDQTSTWISDIHPEAVKNETMAEYLLRELDASTMQKRVQAFKANVLADRDRVRVAGQFYNNIRIGKRMFGAARKAKYLSTIIGGMERRFEILENSVNHIPFTHSASDNNQEKCRNPRVHCKDSTRIALQFPRGQYLGDFIHANRISGKPLFNEFIMTQAPMKNTVDDFWRMVWQEEVPYIVMLTSRKEPERCEYYWPKSPSDPAVTVPGGLRIENFGVYQAPDPLFRVTHLRLIGPDREERHVEHWQGDVNNSSNMYSPLNILRLLRNASKPVVIHDHLGVSRAACLVAAEIAICSLLRGPTYKYPVQRAVQFLRQRRPFSIETPMQYIFVHRLVAFFFRDVIGSAKELDVDYERWLQERSERMFLDDLAAPIPGYRLLSPRADPDIVRMVGRPERPNYRREAPDCVGEMPNKVATVDGILSPAKSVFEF
B5: EGG-5 (full length, 1-753 aa) (protein, UniProt O61789 1-753)
chain: B4 chain with R139S, N157D, T255S, M344L, K444R, T739A

Assays:
Assay in all cases: two-hybrid; DupLEX-A Yeast Two-Hybrid System; MARC-3 regions as bait (pEG202), other proteins as prey (pJG4-5); yeast EGY48 with the lacZ reporter pSH18-34; X-gal plates
[1] = biological target: T1, C38S-substituted MARC-3N (C. elegans)
[2] = biological target: T2, MARC-3 N-terminal cytoplasmic region (MARC-3N, 1-98 aa) (C. elegans)
[3] = biological target: T1, C38S-substituted MARC-3N (C. elegans); remark: listed apart in the source
[4] = biological target: T2, MARC-3 N-terminal cytoplasmic region (MARC-3N, 1-98 aa) (C. elegans); remark: listed apart in the source
[5] = biological target: T3, MARC-3 C-terminal cytoplasmic region (MARC-3C, 179-431 aa) (C. elegans)

Row | Molecule | binding [1] | binding [2] | binding [3] | binding [4] | binding [5]
1 | LET-70 (full length, 1-147 aa) (from UniProt P35129 1-147) (enzyme) | no binding | binds | – | – | –
2 | UEV-1 (full length, 1-139 aa) (from UniProt O45495 1-139) | – | no binding | – | – | –
3 | B1 | – | – | no binding | binds | no binding
4 | B2 | – | – | – | no binding | –
5 | B3 | – | – | – | no binding | no binding
6 | MSQQPGSARRVNFPEEPMTLGEKFSHRMDQLKEIIADGGCSRAAKCVS (domain or fragment, UniProt Q09967 1-48) [EGG-1 (the N-terminal cytoplasmic region, 1-48 aa)] | – | – | – | no binding | no binding
7 | MSQQAGNAQRGRFDEEPMSLGEKISHRMDQLKEIVSSSCPCAGKFPPVA (domain or fragment, UniProt Q21629 1-49) [EGG-2 (the N-terminal cytoplasmic region, 1-49 aa)] | – | – | – | no binding | no binding
8 | B4 | – | – | – | no binding | no binding
9 | B5 | – | – | – | no binding | no binding

Source: article PMC10817901
